Data on 40 sequences can be found in paper PMC10726135.

The list shows a part of the results. At the low end of the ranking, values are background and their order means little. Measured with an extract: partners may take part in the binding.

The assay addresses T1, HNF4alpha2 (COS-7 nuclear extract) (UniProt P41235).
T1 sequence: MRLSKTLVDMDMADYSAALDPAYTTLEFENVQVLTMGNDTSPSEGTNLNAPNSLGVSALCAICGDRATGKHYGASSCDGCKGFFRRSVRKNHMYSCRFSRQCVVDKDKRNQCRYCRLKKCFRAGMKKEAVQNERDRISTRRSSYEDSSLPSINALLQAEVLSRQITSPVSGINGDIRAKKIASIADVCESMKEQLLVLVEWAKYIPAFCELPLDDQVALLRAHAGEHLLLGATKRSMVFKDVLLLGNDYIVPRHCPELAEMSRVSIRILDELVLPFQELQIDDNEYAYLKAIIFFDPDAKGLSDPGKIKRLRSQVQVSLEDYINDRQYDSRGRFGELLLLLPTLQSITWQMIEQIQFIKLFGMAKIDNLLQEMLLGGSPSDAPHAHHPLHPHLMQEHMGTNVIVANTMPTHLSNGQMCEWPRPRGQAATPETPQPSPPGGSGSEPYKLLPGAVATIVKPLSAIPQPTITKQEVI
Description: protein-binding microarray. The following applies: COS-7 nuclear extract on double-stranded Agilent 4x180k PBM; binding buffer, salt, pH and temperature not given; high values mean tight binding; double strand, one strand shown; sequences stand for … in …GCCTAGGGAGATTAGAGTATCGGTCGA
With AACACAGGTGACCTTTGCTCCGGTTCCCAA, the binding signal (log2 normalized intensity) stood at 6.26.
The result for GCATCTTATCTGAATCTGGAATCACGTTCG reads 1.19; that for GAAGACTTCATGATAACACTTCCCAAGCAT, -1.15; that for GATGTCTCTCATTGGAATGAGCCTCCTGAA, 0.306.
The result for GGCAGCCTTCGTTTGCTTTTCCTTATCATC reads -0.749.
The result for CTTGGCAAGGGGAGGCACTCATGGTGTTTG reads 0.674; that for CTTTAGCTCCTGGGCCCAGATATACAAGAA, 0.542.
Take AAGAAAAGCCTTGTGGCAGTGAGAACAGGT: the binding signal (log2 normalized intensity) was 0.143.
The result for ATCTTGATTACTATAGGGCAAATGGAAGAA reads 0.925; that for GTGTTGTGACTACCTGGTTAAAAGGACAAC, 0.125.
The result for GTCTGACCAACCTGTCCAAAGGTCATCTGT reads 7.04.
The result for AAGATCTGTGAAAGAAAAGTACTTTAGTGT reads 1.6; that for TGGCGCCATTTCAGGTCCACCAAGGTGGTG, -0.658.
Regarding CTCCCACATGCTGTCTAGGCCAGAGTTCAC, the binding signal (log2 normalized intensity) came out at 2.29.
The result for CCCTGACTAAATTCTTGTCAATGACCCTAA reads 3.43.
The result for AAATCTGCACTTTACGTAAGATAAGGTGAA reads -0.241; that for CAGTTGACATGATACCTTCCTGAATGCCTA, -0.905; that for CAGCATAGAAAACAAGTTAGACAGTGCCTA, -1.21.
The result for TTCTTTTTTTTTTTTTTTTTTTTTTGAGAT reads 3; that for AGGAGCCTCTGCAACCTTTGCTCTCCCTCC, 4.51; that for TGAGAGATTAAACATGCTCTGCATACCTGC, -1.07.
On to GCAGATGGTTTCATCTGGTTTCTGTTTGAG, for which the binding signal (log2 normalized intensity) worked out at 1.45.
The result for CAGTTTGGACTTTGATCCTGATGACTGCAG reads 7.49; that for CTCCTTCATCTTCAAAGCCAGCAATGGCAG, -0.267.
The result for ATTACAACCAAAGGAATTTAGCCTTTAACC reads 2.2; that for CCTCACTTATCACATTCTGCTCTTGAACCA, 0.488; that for CGTGGTTCAGGGAGCGAATAAATACATAAA, -0.979.
The result for ATGCAACACAGGGGGAGGAATGCTGACCTC reads 2.66.
On to GCGCCTTGCGAGCGTACGCAGGGCGGCCGG, for which the binding signal (log2 normalized intensity) is 0.55.
The result for TGACTCAGTCTTACTTGACAATTACATAGT reads 0.692; that for GGGTGCTGCCTTTCCTGTGACTTTTGGCCA, 3.42.
The result for CTGACAGGATGAATTTATTGCCCTCAGGGT reads 1.97; that for AGCCCTAAAGACCACTGGGCTTTCACAAGG, -1.15; that for CCGTCACTGCAAGGCAAACACTCAAGGTCC, -0.943.
On to GAGCACAGGGTCAGCAGATCTTTGTTAACA, for which the binding signal (log2 normalized intensity) was 0.301.
The result for AGTCTGTCTTGCTGTTTTTCCAGTTTTTGT reads 1.59.
The result for TCAAAGGTGGAGATAACAAACTTGATTGGG reads -0.96; that for TATCAGGGAGATAGTCTGAGAGTCACTGCC, -0.707.
On to TGTTGACATCTTGATTTAGCCCAGTGAGAC, for which the binding signal (log2 normalized intensity) stood at 1.28.
The result for ATGGAACAAGCCAGGTGTGCAGAGAGCAAA reads -1.26.
